In PubChem BioAssay AID894 (National Center for Advancing Translational Sciences (NCATS), 2007):
Among all 150,000 compounds or so, about 6,500 (4.3%) were called active. Inconclusive means that the source gave no clear call. Such entries were picked first, then a sample of the others. The call rests on the fitted dose curve; in most records, active means well fitted inhibition curve with a large enough effect (not every such curve was filed as active); inconclusive means small, poorly fitted or top-dose-only effect, or another doubt; inactive means no such curve, though single readings can be large or run the other way. No potency is given beside an inconclusive call; the fits are too rough.

Biological target: 15-hydroxyprostaglandin dehydrogenase [NAD(+)] (Homo sapiens) (UniProt P15428)
Chain of UniProt P15428 (P15428 whole entry, looked up): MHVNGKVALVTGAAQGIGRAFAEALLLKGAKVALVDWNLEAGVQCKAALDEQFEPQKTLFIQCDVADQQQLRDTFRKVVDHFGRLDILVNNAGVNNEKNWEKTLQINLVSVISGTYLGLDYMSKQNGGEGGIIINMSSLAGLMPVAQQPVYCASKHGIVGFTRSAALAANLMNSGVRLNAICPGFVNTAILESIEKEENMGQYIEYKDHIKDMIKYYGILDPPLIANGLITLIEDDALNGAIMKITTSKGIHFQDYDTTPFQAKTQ
Assay: qHTS Assay for Inhibitors of HPGD (15-Hydroxyprostaglandin Dehydrogenase)
Settings: purified HPGD, NADH fluorescence kinetic, PGE2 substrate; activity change, negative = inhibition: stronger effect = lower value
Outline: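 NADH formation kinetics: reaction with 30 uM PGE2 and 1 mM NAD+ (final), 20 nM enzyme, Tris-HCl pH 8 with Tween 20, after 15 min compound preincubation at room temperature. Fluorescence change, last versus first of five reads.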
On the % scale 0 is the no-effect control and ±100 the full control effect; potency means the concentration at half of the fitted maximal effect; tags describe the fitted curve by direction and shape.

| Compound | Potency | activity change, negative = inhibition |
| --- | --- | --- |
| CCOc1ccc2nc(C(=O)N3CCCC(C)C3)sc2c1 (stereo not given) | active: 7.94 µM |  |
| COc1ccc(/C=N/NC(=O)c2cc(-c3ccc(Cl)cc3)n[nH]2)cc1OC | inconclusive [inhibitor, single point] |  |
| N=c1c(C(=O)NCC2CCCO2)cc2c(=O)n3ccccc3nc2n1Cc1cccnc1 (stereo not given) | inconclusive [inhibitor, partial curve] |  |
| CN1C(=O)N(C)C2=NNC=NC2(O)C1=O (stereo not given) | inconclusive [inhibitor, partial curve, poor fit] |  |
| c1csc(-c2nc3c4ccccc4c4ccccc4c3[nH]2)c1 | inconclusive [inhibitor, partial curve] |  |
| COc1ccccc1-n1cnc2c(c1=O)c1nc3ccccc3nc1n2CCc1ccccc1 | inconclusive [inhibitor, partial curve] |  |
| COc1cccc(N=Nc2c(=O)[nH]n3c(=O)cc(C)[nH]c23)c1 | active: 14.1 µM |  |
| CC(C)Oc1ccc(CCc2n[nH]c(=S)n2Cc2ccccc2)cc1 | active: 10 µM |  |
| CC(=O)Nc1ccccc1C | inconclusive [inhibitor, single point] |  |
| Cc1nc2c3c(-c4ccccc4)c(-c4ccccc4)oc3ncn2n1 | inconclusive [inhibitor, partial curve] |  |
| O=C(CN(C(=O)c1cc2c(s1)CCC2)C1CCCC1)NCc1cccs1 |  | inactive: -6.13% |
| CC(C)C1=C2OC(N)=C(C#N)C(C#N)=C2C(C)CC1 (stereo not given) | inconclusive [inhibitor, partial curve] |  |
| Nc1ncnc2c1c(-c1ccc(Oc3ccccc3)cc1)cn2C1CCCC1 | inconclusive [inhibitor, partial curve] |  |
| CCc1nnc(NC(=O)c2cccc(S(=O)(=O)N(C)c3ccccc3)c2)s1 | active: 28.2 µM |  |
| C=CCOc1ccc2oc(=O)cc(C)c2c1 | inconclusive [inhibitor, partial curve] |  |
| COc1ccc(-c2nn(CCC(=O)O)cc2/C=C2\SC(N)=NC2=O)cc1 | active: 11.2 µM |  |
| CC(=O)c1ccc(N2CCN(S(=O)(=O)c3cccc(S(=O)(=O)N4CCOCC4)c3)CC2)cc1 |  | inactive: -7.15% |
| COc1cccc(-n2nnnc2SCC(=O)N2CCCc3ccccc32)c1 |  | inactive: -12.8% |
| COc1ccc(C(=O)/C(=C/c2cccs2)c2nc3ccccc3o2)cc1 | active: 35.5 µM |  |
| O=C(N/N=C/c1cccc([N+](=O)[O-])c1)c1cccs1 |  | inactive: -8.47% |
| c1ccc(CC2CCN(c3nc4ccccc4n4nnnc34)CC2)cc1 | inconclusive [inhibitor, partial curve] |  |
| CCc1cccc2c(C(=O)COC(=O)/C=C/c3ccc(O)c(OC)c3)c[nH]c12 | inconclusive [inhibitor, partial curve] |  |
| O=Cc1ccc(Cl)cc1 |  | inactive: -3.53% |
| O=C(Nc1ccccc1)N1CC[C@@]2(CCCN(C(=O)c3ccncc3)C2)C1 |  | inactive: -4.46% |
| CC(C)c1ccc(C2CC(=O)N3CN(C)CSC3=C2C#N)cc1 (stereo not given) | active: 14.1 µM |  |

| Compound | Potency | activity change, negative = inhibition |
| --- | --- | --- |
| Cc1c(C(=O)OCCOc2ccccc2)[nH]c2c1C(=O)CCC2 |  | inactive: -17.8% |
| O=C(Nc1cccc(S(=O)(=O)N2CCCC2)c1)c1ccc2c(=O)n3c(nc2c1)CCCCC3 |  | inactive: -6.08% |
| CCc1nnc(NC=C2C(=O)OC(C)(C)OC2=O)s1 |  | inactive: -14.2% |
| C1CCC2(CC1)C1=C(CCCC1)Nc1nnnn12 |  | inactive: 1.96% |
| CCOC(=O)C(NC(=O)c1ccc(OC)cc1)(N1CCCC1=O)C(F)(F)F (stereo not given) |  | inactive: 2.2% |
| CN(C)S(=O)(=O)c1cccc(NC(=S)Nc2ccc(Cl)cc2Cl)c1 | inconclusive [inhibitor, single point] |  |
| CCOC(=O)c1c(C)nc2c(C#N)cnn2c1C | inconclusive [inhibitor, partial curve] |  |
| CCCCC(CC)CN1C(=O)/C(=C/c2ccncc2)SC1=S (stereo not given) | inconclusive [inhibitor, partial curve, poor fit] |  |
| COc1ccc(Nc2ncnc3sc(-c4ccccc4)cc23)cc1OC | inconclusive [inhibitor, partial curve] |  |
| COc1ccc(-c2nsc3c(N4CCCCC4)ncnc23)cc1 | inconclusive [inhibitor, partial curve] |  |
| N#Cc1ccc(CSc2nnc(-c3ccccc3)n2Cc2ccco2)cc1 |  | inactive: -6.16% |
| COc1ccccc1-c1cc(C(=O)NCc2ccccc2)no1 | inconclusive [inhibitor, partial curve] |  |
| Cc1nn(-c2ccccc2)c2nc3c(cc12)C(=O)CCC3 | inconclusive [inhibitor, single point] |  |
| ClC(Cl)(c1nnnn1-c1ccccc1)c1nnnn1-c1ccccc1 | active: 3.16 µM |  |
| CCn1c2ccccc2c2nnc(SCc3cc(=O)n4ccsc4n3)nc21 |  | inactive: -19.8% |
| CCOC(=O)/C(=N\Nc1ccccc1)S(=O)(=O)c1ccccc1 | active: 14.1 µM |  |
| Cc1nc(-c2coc3cc(O)c(C)cc3c2=O)cs1 | inconclusive [inhibitor, partial curve] |  |
| O=c1c2cnn(-c3ccccc3)c2nc(-c2cccs2)n1-c1ccc(Cl)cc1 | inconclusive [inhibitor, single point] |  |
| O=C(CCc1ccccc1)NCCSCc1c(F)cccc1Cl | active: 5.01 µM |  |
| CNC(=S)N(CCc1cccc(C)c1)Cc1cc2cc(OC)c(OC)cc2[nH]c1=O | inconclusive [inhibitor, partial curve] |  |
| O=C(NC(=S)N(Cc1ccccc1)c1ccccn1)C1CC1 | inconclusive [inhibitor, partial curve] |  |
| O=C(NCc1ccco1)Nc1ccccc1Cl | inconclusive [inhibitor, partial curve, poor fit] |  |
| Cc1nc2cc(-c3ccccc3)nn2c(C)c1CCC(=O)N1CCN(c2ccccc2)CC1 | inconclusive [inhibitor, partial curve] |  |
| COc1cc(C(=O)/C=C/Nc2ccc(NC(C)=O)cc2)cc(OC)c1OC | active: 28.2 µM |  |
| CCN1CCN(c2cc(C)c3cc(NC(=O)Cc4ccccc4OC)ccc3n2)CC1 | inconclusive [inhibitor, single point] |  |

| Compound | Potency | activity change, negative = inhibition |
| --- | --- | --- |
| Cc1oc(-c2nc3ccccc3n2C)cc1C(=O)c1ccccc1 | active: 35.5 µM |  |
| CN(C)CCNc1nc2c(c(=O)[nH]c(=O)n2C)n1CC(O)COc1ccc(Cl)cc1Cl (stereo not given) | active: 22.4 µM |  |
| O=[N+]([O-])c1ccccc1/C=C/CN1CCCCC1 |  | inactive: 4.71% |
| O=C(CSCc1ccco1)NC1CCCC1 | active: 28.2 µM |  |
| COc1ccccc1CC(=O)Nc1ccc(-c2nnc(-c3ccco3)o2)cc1 | inconclusive [inhibitor, partial curve] |  |
| Cc1ccc(S(=O)(=O)NC(C)CCc2ccccc2)cc1 (stereo not given) |  | inactive: -6.47% |
| Cc1cccc(NC(=S)N=Nc2c(O)n(C)c3ccc(S(=O)(=O)N4CCOCC4)cc23)c1 | inconclusive [inhibitor, partial curve] |  |
| COc1cc2cc(CN(CCCO)S(=O)(=O)c3ccccc3Cl)c(=O)[nH]c2cc1OC | inconclusive [inhibitor, partial curve] |  |
| CCOC(=O)c1ccc(COC(=O)CCc2nc(-c3ccccc3)c(-c3ccccc3)o2)cc1 | inconclusive [inhibitor, partial curve] |  |
| Cc1ccc(-c2[nH]nc3c2C(c2ccoc2)C(C#N)=C(N)O3)cc1C (stereo not given) |  | inactive: -22.3% |
| COc1ccc(-n2c(Cc3cccn3C)nnc2SCC(=O)Nc2ccc(Cl)cc2)cc1 |  | inactive: -11.3% |
| CS(=O)(=O)CCCCN=C=S |  | inactive: -9.79% |
| CCOC(=O)Cn1c(=O)oc2cc(S(=O)(=O)Nc3ccc(N(CC)CC)cc3C)ccc21 | active: 28.2 µM |  |
| COc1cc(/C=C2\SC(=S)NC2=O)ccc1OS(=O)(=O)c1ccccc1 | active: 8.91 µM |  |
| O=C(CSc1n[nH]c(-c2ccncc2)n1)c1ccccc1 | inconclusive [inhibitor, single point] |  |
| CCc1cc(C(=O)N=Nc2c(O)[nH]c3c(Br)cc(Br)cc23)c2ccccc2n1 |  | inactive: -6.14% |
| Cc1ccc(-c2n[nH]c(=S)n2/N=C\c2ccco2)cc1 | active: 22.4 µM |  |
| Nc1ccc(C(=O)OCC(=O)N2CCc3ccccc3C2)cc1[N+](=O)[O-] | active: 12.6 µM |  |
| CCOC(=O)c1nnc(-c2ccc(C)cc2)nc1Oc1ccccc1Cl |  | inactive: -17.1% |
| O=c1[nH]c(NCCO)nc2c1C1(CCCCC1)Cc1ccccc1-2 | inconclusive [inhibitor, partial curve] |  |
| Cc1ccc(-c2csc(NC(=O)c3cccc(N4C(=O)CCC4=O)c3)n2)o1 | inconclusive [inhibitor, partial curve] |  |
| COc1ccc(/C=N/NC(=O)CCc2c(C)n[nH]c2C)cc1OC | inconclusive [inhibitor, partial curve, poor fit] |  |
| Cc1nn(C)c(C)c1NC(=O)CSc1nc(C2CC2)nc2c1cnn2-c1ccccc1 |  | inactive: -24% |
| Cc1nnc(NC(=O)/C=C/c2ccco2)s1 | inconclusive [inhibitor, partial curve] |  |
| Cc1nn(C(=O)c2ccc3c(c2)OCO3)c(N)c1-c1ccccc1 | inconclusive [inhibitor, partial curve] |  |
